Measurements from paper PMC6919601, “Identification of Plasmodium dipeptidyl aminopeptidase allosteric inhibitors by high throughput screening” (PLoS ONE, 2019).
About 230 (0.21%) of roughly 110,000 compounds showed an effect of 50% or more. This is one part of the list.

Target: DPAP1 (Plasmodium falciparum, UniProt Q8IIJ9)
Test: primary screen, percent inhibition; read by cleavage of a fluorogenic dipeptide substrate; higher = more effect of the substance
Design: species or system P. falciparum D10 trophozoite lysates; single well
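Further: 30 min substrate incubation versus DMSO and 10 µM JCP410 controls.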

Sequence of DPAP1 (Q8IIJ9 whole entry, looked up): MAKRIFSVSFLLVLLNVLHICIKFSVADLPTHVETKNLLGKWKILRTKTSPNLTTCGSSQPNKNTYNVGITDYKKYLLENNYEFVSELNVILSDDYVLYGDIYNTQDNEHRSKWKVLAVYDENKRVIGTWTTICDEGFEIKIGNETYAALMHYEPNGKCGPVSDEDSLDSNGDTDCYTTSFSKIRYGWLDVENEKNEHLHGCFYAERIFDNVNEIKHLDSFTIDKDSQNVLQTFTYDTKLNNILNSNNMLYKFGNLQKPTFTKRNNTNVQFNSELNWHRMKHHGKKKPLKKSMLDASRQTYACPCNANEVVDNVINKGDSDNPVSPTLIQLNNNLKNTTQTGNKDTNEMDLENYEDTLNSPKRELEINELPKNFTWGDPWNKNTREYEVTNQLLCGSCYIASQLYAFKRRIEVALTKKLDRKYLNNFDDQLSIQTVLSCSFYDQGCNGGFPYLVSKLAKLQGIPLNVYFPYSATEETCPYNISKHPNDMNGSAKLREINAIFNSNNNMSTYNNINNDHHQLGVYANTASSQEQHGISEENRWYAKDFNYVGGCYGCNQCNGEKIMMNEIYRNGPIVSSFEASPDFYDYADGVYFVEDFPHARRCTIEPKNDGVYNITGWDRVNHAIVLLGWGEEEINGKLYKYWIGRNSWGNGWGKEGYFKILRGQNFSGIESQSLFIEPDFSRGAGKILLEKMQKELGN

Row | SMILES | % Inhibition @ 10 uM
1 | COc1ccc2oc(=O)cc(CN3CCN(Cc4ccc(C)cc4)CC3)c2c1 | 8.37%
2 | Cn1c(C(=O)N2CCCC(C(=O)NCc3ccc4c(c3)OCO4)C2)cc2sccc21 (centres unmarked) | -8.57%
3 | C/C(=C\c1ccccc1)CN1CCN(c2ccc(F)cc2)CC1 | -1.5%
4 | Cn1c(=O)n(C)c2cc(/C=C3/SC(=O)N(Cc4ccc(Cl)cc4)C3=O)ccc21 | -6.25%
5 | O=S(=O)(c1ccc2oc3ccc(S(=O)(=O)N4CCCC4)cc3c2c1)N1CCCC1 | 0.528%
6 | CC1(C)CC(=O)C(/C=N/CCCC(=O)O)=C(O)C1 | 3.66%
7 | CCOc1ccc(N2C(=O)CC(N(CCc3ccc(S(N)(=O)=O)cc3)C(C)=O)C2=O)cc1 (centres unmarked) | -9.25%
8 | Cc1ccc(OCC(=O)Nc2ccc(S(=O)(=O)N3CCCCCC3)cc2)cc1 | 7.78%
9 | CC(C)Cc1c(C#N)c(N)nc(SCC(=O)c2ccc(-c3ccccc3)cc2)c1C#N | 16.2%
10 | Fc1cc(Br)ccc1-n1ncnc1-c1ccncc1 | -0.0953%
11 | COc1ccccc1NC(=O)NC1(C(F)(F)F)Oc2ccccc2O1 | 3.97%
12 | CC(=O)C1=C(C)Nc2ncnn2C1c1ccc(Cl)cc1Cl (centres unmarked) | 0.408%
13 | COc1ccc(S(=O)(=O)NCC(=O)Nc2ccccc2Br)cc1OC | -5.39%
14 | CC(=O)NS(=O)(=O)c1ccc(NC(=O)c2cccs2)cc1 | 2.4%
15 | COc1cccc2c1OC(c1cccnc1)N1N=C(c3cc(Cl)ccc3O)CC21 (centres unmarked) | -5.36%
16 | Cc1ccc(/C=C/C(O)=C2/C(=O)N(C)C3(C)CC2c2ccccc2O3)cc1 (centres unmarked) | 1.5%
17 | CN1CCN(C(=O)/C(=C/c2cn(S(=O)(=O)N(C)C)c3ccccc23)NC(=O)c2ccccc2)CC1 | 1.43%
18 | O=C1CCCc2c1nc(-c1ccc(F)cc1)n2O | 0.215%
19 | Cc1cc(Cl)ccc1OCC(=O)N(Cc1ccccc1)c1ccccn1 | -1.35%
20 | CCN(CC)S(=O)(=O)c1ccc(-c2csc(Nc3ccccc3OC)n2)cc1 | -9.97%
21 | Cc1ccc(C2CC(=O)NC3=C2C(=O)CC(C)(C)C3)cc1 (centres unmarked) | -0.668%
22 | Cc1nn(C)c2c1c(-c1ccccc1)cc(=O)n2CCOc1ccccc1 | 5.73%
23 | COC1CCCCC(=O)N1S(=O)(=O)c1ccc(C)cc1 (centres unmarked) | -4.35%
24 | Cc1cc(C)c(Cn2c3ccccc3c3cnn(CC(=O)N4CCCC4)c(=O)c32)c(C)c1 | -11.1%
25 | O=C(O)c1ccc(COc2ccc(Cl)cc2Cl)cc1 | -7.9%
26 | CN1C(=O)NC(NC(=O)c2ccc(C(C)(C)C)cc2)(C(F)(F)F)C1=O (centres unmarked) | -8.28%

Row | SMILES | % Inhibition @ 10 uM
27 | CCO/C(O)=C1\C(C)=NC2=C(C(=O)CCC2)C1c1cccc([N+](=O)[O-])c1 (centres unmarked) | -1.78%
28 | C(#Cc1cccc2ccccc12)CN1CCOCC1 | 1.13%
29 | O=C(NCc1cccc(Cl)c1)C1CCN(c2ncnc3c2nc2n3CCCCC2)CC1 | -6.67%
30 | NC(=O)c1cc(NC(=O)c2ccccc2Cl)c(Cl)cc1Cl | -9.87%
31 | CCC(=O)n1nc(-c2ccco2)nc1SCc1ccccc1 | 0.778%
32 | Cn1c2c(c(=O)n(C)c1=O)C(c1cccc(Cl)c1)C(C#N)=C(N)O2 (centres unmarked) | -0.736%
33 | O=C1c2ccccc2C(=O)N1CCCc1nc(-c2ccccc2)no1 | 3.51%
34 | CCOC(=O)N1CCC(NCc2ccc(Cl)cc2Cl)CC1 | -2.03%
35 | Cc1ccc(NC(=O)c2ccc(CNS(=O)(=O)c3cccc(Cl)c3)cc2)cc1 | 5.69%
36 | COc1ccc(C2CC(c3ccccc3OC(F)F)Nc3ncnn32)cc1 (centres unmarked) | -5.05%
37 | CC1CN(C(=O)Cn2cc(S(=O)(=O)Cc3cccc(Cl)c3)c3ccccc32)CC(C)O1 (centres unmarked) | -6.47%
38 | C=CCNC(=O)CN(c1ccc(C)cc1)S(=O)(=O)c1ccc(F)cc1 | 1.35%
39 | C/C(=N/O)c1[nH]c(C)c(/C(C)=N\O)c1C | 3.01%
40 | CCOc1ccccc1Nc1nc(N)nc(CN2CCCCC2C)n1 (centres unmarked) | -4.52%
41 | O=C(NC1CCCCCC1)C1CCN(S(=O)(=O)c2cccc3nsnc23)CC1 | -5.22%
42 | CC(=O)N1CCN(CCCc2ccccc2)CC1 | -1.86%
43 | CCOC(=O)N1CCC(NC(=O)c2cc3c(=O)oc4ccc(C)cc4c3s2)CC1 | 9.02%
44 | COc1ccc(S(=O)(=O)Nc2cc(Cl)cc(Cl)c2)cc1 | 0.135%
45 | COC(=O)c1ccc2oc(=O)c(S(=O)(=O)c3ccc(F)cc3)cc2c1 | 0.44%
46 | Cc1ccc2cc3cc(C(=O)N4CC(C)CC(C)C4)oc3nc2c1 (centres unmarked) | -5.22%
47 | COc1ccc(CNc2cccc(N(C)C)c2)cc1 | 2.7%
48 | COc1ccc(F)c(C2NCc3ccccc3-n3cccc32)c1 (centres unmarked) | -3.34%
49 | CCCCc1ccc(NS(=O)(=O)c2ccc(OC)cc2)cc1 | 3.47%
50 | NCCCNC12CC3CC(CC(C3)C1)C2 | -0.424%
51 | Cc1c(C(=O)N2CCOCC2)oc2c1-c1nn(CC(=O)NCCC(C)C)cc1CC2 | 1.45%
52 | CC1(c2ccc3ccccc3c2)NC(=O)NC1=O (centres unmarked) | -5.28%

Row | SMILES | % Inhibition @ 10 uM
53 | OC1CCCN(C/C=C/c2ccccc2)C1 (centres unmarked) | 8%
54 | CC(C)(C#N)C(OC(=O)c1ccco1)c1ccccc1 (centres unmarked) | 0.00178%
55 | O=C(O)c1ccccc1-c1ccccc1C(=O)NCc1cccs1 | 1.88%
56 | CCC(Oc1ccccc1)C(=O)Nc1cc(C)ccc1C (centres unmarked) | -2.22%
57 | Cn1c(=O)c2c(nc(CN3CCN(Cc4ccccc4)CC3)n2Cc2cccc(Cl)c2)n(C)c1=O | -0.499%
58 | CCOC(=O)c1c(C)[nH]c(C)c1S(=O)(=O)N1CCC(N2CCCCC2)CC1 | -2.15%
59 | CCN(CCN(C)C)Cc1ccc2c(c1)c1ccccc1n2CC | 3.35%
60 | O=C(COc1ccccc1Cl)N1CCN(C(=O)c2ccco2)CC1 | -1.43%
61 | Cc1n[nH]c(C)c1CCCCOc1cccc(Cl)c1 | -4.3%
62 | COc1ccc2nc(NC(=O)CSc3nnc4n(N)cnn34)sc2c1 | -0.597%
63 | Cc1cccc(N2CCN(C(=O)c3c(-c4ccccc4)noc3C)CC2)c1C | 7.78%
64 | COc1ccc(CN2CCN(Cc3cccc(C)c3)CC2)cc1OC | -4.33%
65 | Cc1nn(C(=O)COc2ccc(F)cc2)c(C)c1Sc1ccccc1 | 3.72%
66 | Cc1ccc(S(=O)(=O)N(CC(=O)N2CCCCCC2)C2CCCCC2)cc1 | -0.553%
67 | O=C(NCCCNC1CCCCC1)c1cc2ccccc2[nH]1 | 1.74%
68 | COc1cccc(OC)c1C(=O)N(C)c1ccccc1 | -0.833%
69 | O=C(CN(C1CCCCC1)S(=O)(=O)c1ccccc1)N1CCN(c2ccccc2F)CC1 | 2.76%
70 | CCN(CC)C(=O)C1=C(C)Nc2nc3ccccc3n2C1c1cc(Br)ccc1OC (centres unmarked) | 1.02%
71 | CCOc1ccc(CC(=O)Nc2cc(C)cc(C)c2)cc1OCC | 1.83%
72 | COc1cc(Br)c(CCNC(=O)OC(C)(C)C)cc1OC | -0.132%
73 | O=C(NCC1(c2ccccc2)CCCC1)c1ccccc1 | 4.61%
74 | Cc1nc2c(-c3ccccc3)c(C)nn2c(C)c1CC(=O)N1CCc2ccccc2C1 | 0.953%
75 | CC(CNC(=O)C12CC3CC(CC(C3)C1)C2)OC(=O)c1cccs1 (centres unmarked) | -5.96%
76 | COc1ccc(OC)c(-n2nnc(-c3nc(-c4ccncc4)no3)c2N)c1 | 5.47%
77 | Cn1cc(C(=O)NCC2(c3ccccc3)CCCC2)c2c3ccccc3n(C)c2c1=O | -1.36%
78 | Cc1ccc(/C=N/n2c(C)nnc2C)cc1 | 3.06%

Row | SMILES | % Inhibition @ 10 uM
79 | O=C(COc1ccc(S(=O)(=O)N2CCCC2)cc1)NCCC1=CCCCC1 | -9.2%
80 | CC1(C)CC2=Nc3ccccc3NC(c3cccc(F)c3)C2=C(O)C1 (centres unmarked) | -5.38%
81 | O=S(=O)(NC1CC1)c1ccc2[nH]c(O)nc2c1 | -3.5%
82 | Cc1cc2nc3s/c(=C\c4ccc(N(C)C)cc4)c(=O)n3c2cc1C | -3.38%
83 | Cc1c(Cl)cccc1NC(=O)c1cccc(Cl)c1 | 5.29%
84 | COc1ccccc1C(=O)N/C(=C\c1ccc(Br)cc1)c1nc2ccccc2[nH]1 | 9.01%
85 | COc1cccc2cc(-c3cn(-c4cccc(C)c4)c(S)n3)c(=O)oc12 | 20.1%
86 | COc1ccc(CNC2CCN(C)CC2)cc1 | -2.34%
87 | O=C(Cn1c(SCc2cccc(F)c2)nc2ccncc21)N1CCCCCC1 | -2.37%
88 | O=C(CSc1ncccc1C(=O)NCc1ccccc1Cl)NCc1ccccc1 | -1.99%
89 | O=C(CCCn1sc2ccccc2c1=O)N1CCCC1 | 2.06%
90 | CC(C)CCNC(=O)C(NC(=O)C1CCC(C)CC1)C(C)C (centres unmarked) | 3.34%
91 | COc1ccc(Cl)cc1-c1nc(/C=N/c2ccccn2)c(O)o1 | -0.945%
92 | CC(C)CC(=O)N1CCN(Cc2ccc(C(F)(F)F)cc2)CC1 | 8.36%
93 | O=S(=O)(c1ccc(Cl)cc1)N1CCN(c2ccc(F)cc2)CC1 | -1.22%
94 | CC1CC(=O)C2=C(C1)OC(N)=C(C#N)C2c1cccc(F)c1 (centres unmarked) | 3.1%
95 | COCCNC(=O)c1cc(-c2ccc(F)cc2)nc2ccccc12 | 0.718%
96 | CCc1ccccc1N(CC(=O)NC)S(=O)(=O)c1ccccc1 | 5.25%
97 | O=C(NCCCCc1ccccc1)Nc1ccccc1 | -3.56%
98 | CCOc1cc(-c2cc(C(=O)O)c3c(-c4ccc(Br)cc4)[nH]nc3n2)ccc1O | -2.07%
99 | CCOc1ccc(-c2cn3c(n2)sc2cc(C(=O)NCCCN4CCOCC4)ccc23)cc1 | 12.1%
100 | N#CCNC(=O)[C@H](CC1CCCCC1)NC(=O)c1ccc(N)cc1 | -1.83%
101 | C(CNC1CC2CCC1C2)CN1CCOCC1 (centres unmarked) | -1.82%
